Data on 115 sequences can be found in the BET-seq Pho4 binding data (Le et al. 2018).

This is one part of the list. The energies were worked out here from pooled read counts, against the library average; single values are noisy.

For this experiment, the target named is T1, Pho4 (S. cerevisiae) (UniProt P07270).
T1 sequence: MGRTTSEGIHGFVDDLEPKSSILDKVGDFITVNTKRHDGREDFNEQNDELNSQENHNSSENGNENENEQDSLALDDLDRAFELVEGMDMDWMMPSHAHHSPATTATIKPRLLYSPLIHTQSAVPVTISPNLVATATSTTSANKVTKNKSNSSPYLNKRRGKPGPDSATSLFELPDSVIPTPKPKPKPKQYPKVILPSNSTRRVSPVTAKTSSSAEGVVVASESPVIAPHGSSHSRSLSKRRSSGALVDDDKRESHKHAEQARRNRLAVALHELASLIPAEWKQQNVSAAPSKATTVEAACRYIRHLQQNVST
The experiment in a line: relative binding free energy (BET-seq); higher = weaker binding. The conditions noted are these: reference: library average.
Turning to ATTTTCACGTGAATGG, the “relative binding free energy” value is 0.37 kcal/mol.
Take GATGACACGTGTTGTA: the “relative binding free energy” value was -0.03 kcal/mol.
Take CAGATCACGTGTGTGT: the “relative binding free energy” value is 0.17 kcal/mol.
Turning to TGATGCACGTGGTGGC, the “relative binding free energy” value was -0.12 kcal/mol.
With ATGCGCACGTGGTGTA the figure was -0.25 kcal/mol; with TAATACACGTGGTTAG, -0.01 kcal/mol.
On to TGGACCACGTGCGTGG, for which the “relative binding free energy” value is -0.12 kcal/mol.
For the sequence CTGTGCACGTGGAGGC, the “relative binding free energy” value was -0.21 kcal/mol.
On to GCGAGCACGTGTTTGG, for which the “relative binding free energy” value was -0.11 kcal/mol.
Regarding CGTTTCACGTGCGCGT, the “relative binding free energy” value worked out at 0.22 kcal/mol.
To TGAGACACGTGATGAT belongs 0.19 kcal/mol; to CAATTCACGTGGGTAG, 0.22 kcal/mol.
Consider TCGGGCACGTGAGCGT, for which the “relative binding free energy” value is 0.05 kcal/mol.
For TTGTACACGTGATATA, the “relative binding free energy” value was determined as 0.13 kcal/mol.
As for GGGGGCACGTGTCTAT, the “relative binding free energy” value is -0.13 kcal/mol.
As to TTATTCACGTGGGACG, the “relative binding free energy” value amounted to 0.21 kcal/mol.
With TTTTTCACGTGTCGTT the figure was 0.41 kcal/mol; with GTGTGCACGTGAATTA, 0.31 kcal/mol.
With AGATGCACGTGTGAGG the figure was 0.05 kcal/mol; with GGCTTCACGTGTTTAT, 0.28 kcal/mol; with GAGTTCACGTGATAGT, 0.3 kcal/mol.
With ACAAGCACGTGGGGGC, the “relative binding free energy” value was -0.18 kcal/mol.
With TGATTCACGTGAATAG the figure was 0.32 kcal/mol.
To TTGTGCACGTGGTACG belongs -0.16 kcal/mol; to GTGCGCACGTGACGTG, -0.06 kcal/mol.
With TGTTGCACGTGCTTGA, the “relative binding free energy” value worked out at 0.07 kcal/mol.
Consider TTGTGCACGTGACGGC, for which the “relative binding free energy” value was determined as 0.13 kcal/mol.
Consider GATTACACGTGAGGGC, for which the “relative binding free energy” value came out at 0.36 kcal/mol.
For the sequence TGGGGCACGTGAGAAC, the “relative binding free energy” value worked out at 0.15 kcal/mol.
In the case of GGGGTCACGTGTGTTA, the “relative binding free energy” value was 0.2 kcal/mol.
With GATTGCACGTGGTTTG, the “relative binding free energy” value was 0.03 kcal/mol.
On to TTGGGCACGTGCTGGG, for which the “relative binding free energy” value is -0.1 kcal/mol.
To CGTCACACGTGCGGGG belongs -0.04 kcal/mol.
With ATATCCACGTGATGGT, the “relative binding free energy” value was 0.09 kcal/mol.
To CTTTTCACGTGGGTGG belongs 0.2 kcal/mol.
Consider CATATCACGTGTTTAT, for which the “relative binding free energy” value stood at 0.19 kcal/mol.
Regarding CGCTTCACGTGTTGTG, the “relative binding free energy” value was 0.12 kcal/mol.
To TAGTCCACGTGGTTGG belongs -0.01 kcal/mol.
As to CGAGGCACGTGAGTGT, the “relative binding free energy” value is 0.22 kcal/mol.
As to GGGGCCACGTGCGGCG, the “relative binding free energy” value was -0.07 kcal/mol.
On to TGGTACACGTGCTTGG, for which the “relative binding free energy” value was determined as 0.08 kcal/mol.
Regarding AATTGCACGTGGAGTT, the “relative binding free energy” value amounted to 0 kcal/mol.
In the case of GGAAGCACGTGGGCTA, the “relative binding free energy” value was -0.13 kcal/mol.
Consider TGTCACACGTGAGGTA, for which the “relative binding free energy” value is 0.2 kcal/mol.
On to GGATGCACGTGTGATT, for which the “relative binding free energy” value came out at 0.06 kcal/mol.
TAGTGCACGTGCGCTG: the “relative binding free energy” value is -0.05 kcal/mol.
On to GGCTTCACGTGTAGGT, for which the “relative binding free energy” value is 0.25 kcal/mol.
Regarding GTGTGCACGTGAGCAT, the “relative binding free energy” value was determined as 0.26 kcal/mol.
As to TCGTCCACGTGTGAGG, the “relative binding free energy” value was found to be 0.14 kcal/mol.
With GTGGGCACGTGGACGA, the “relative binding free energy” value is -0.18 kcal/mol.
For GGGTGCACGTGTGCGG, the “relative binding free energy” value amounted to 0.08 kcal/mol.
Turning to TGTGGCACGTGTTTCC, the “relative binding free energy” value amounted to 0.03 kcal/mol.
On to GAGGTCACGTGGCATG, for which the “relative binding free energy” value stood at 0.04 kcal/mol.
With ACGGGCACGTGTGGGC the figure was -0.06 kcal/mol; with TGCGGCACGTGTATGA, -0.12 kcal/mol; with GTGTTCACGTGATCAG, 0.3 kcal/mol.
With TGAGGCACGTGTTTAG, the “relative binding free energy” value was -0.17 kcal/mol.
To AATAACACGTGGTTTT belongs -0.01 kcal/mol.
Turning to TGTACCACGTGAAGGG, the “relative binding free energy” value was 0.27 kcal/mol.
As for GATTTCACGTGGGTAA, the “relative binding free energy” value was found to be 0.21 kcal/mol.
Turning to GGTGGCACGTGCATTT, the “relative binding free energy” value is -0.02 kcal/mol.
For the sequence GAAGGCACGTGGTCGT, the “relative binding free energy” value was -0.22 kcal/mol.
With TCGGTCACGTGAGAGT the figure was 0.3 kcal/mol.
As for TGTGCCACGTGTTAAT, the “relative binding free energy” value was -0.03 kcal/mol.
For CATGGCACGTGAGGGC, the “relative binding free energy” value stood at 0.05 kcal/mol.
In the case of CTACTCACGTGGGTGT, the “relative binding free energy” value worked out at 0.08 kcal/mol.
With AGACTCACGTGGGTGT the figure was 0.08 kcal/mol; with GTCGTCACGTGTGGGC, 0.21 kcal/mol.
CAAGGCACGTGATTGG: the “relative binding free energy” value was -0.02 kcal/mol.
With AAGGACACGTGTGTTA the figure was -0.04 kcal/mol; with GGCTACACGTGGGCGT, 0.08 kcal/mol.
To TGGAGCACGTGCTAGT belongs -0.17 kcal/mol; to GCTGGCACGTGGATAG, -0.05 kcal/mol; to CTTAACACGTGGGGGG, -0.1 kcal/mol.
On to AGTTTCACGTGGTCGT, for which the “relative binding free energy” value was determined as 0.08 kcal/mol.
TGGTACACGTGTATAA: the “relative binding free energy” value was found to be 0.03 kcal/mol.
TTAAACACGTGAGCGG: the “relative binding free energy” value is 0.35 kcal/mol.
For GAGTGCACGTGATGGC, the “relative binding free energy” value came to 0.11 kcal/mol.
To TTCCGCACGTGTTTGT belongs -0.06 kcal/mol; to CGTGGCACGTGCGATG, -0.2 kcal/mol; to TTTGACACGTGGTAAT, -0.12 kcal/mol.
To TGTTCCACGTGGGCGG belongs -0.15 kcal/mol; to GATGCCACGTGTGTTA, 0.07 kcal/mol.
ACCGGCACGTGTGAGG: the “relative binding free energy” value turned out to be 0.04 kcal/mol.
As to AAAAGCACGTGGAAGG, the “relative binding free energy” value came to 0.01 kcal/mol.
With GATTGCACGTGGTGGA, the “relative binding free energy” value worked out at 0.02 kcal/mol.
Regarding ATCTGCACGTGTTAGG, the “relative binding free energy” value was -0.09 kcal/mol.
With AGGAGCACGTGCATGG the figure was -0.28 kcal/mol; with TCGTTCACGTGGAGAG, 0.38 kcal/mol.
AAGTTCACGTGAAGGG: the “relative binding free energy” value worked out at 0.48 kcal/mol.
As for ATGGTCACGTGAGGCG, the “relative binding free energy” value came out at 0.26 kcal/mol.
For TAGGGCACGTGTCGGG, the “relative binding free energy” value stood at 0 kcal/mol.
For the sequence TGGCACACGTGTATTG, the “relative binding free energy” value was -0.01 kcal/mol.
For the sequence ATATACACGTGAGGTT, the “relative binding free energy” value came to 0.18 kcal/mol.
For TGATTCACGTGGGAGG, the “relative binding free energy” value was found to be 0.19 kcal/mol.
For the sequence CGGGACACGTGTTGAG, the “relative binding free energy” value came to 0.15 kcal/mol.
TCAGTCACGTGTGCGT: the “relative binding free energy” value stood at 0.04 kcal/mol.
Consider GGGAGCACGTGTTGAG, for which the “relative binding free energy” value worked out at 0.02 kcal/mol.
With TTTGGCACGTGGCTTC the figure was -0.15 kcal/mol.
As to TTGTACACGTGTCGAG, the “relative binding free energy” value is 0.09 kcal/mol.
TGACACACGTGGGAGG: the “relative binding free energy” value was -0.1 kcal/mol.
To CGAGCCACGTGGTGTT belongs 0.03 kcal/mol.
TAGCGCACGTGGGTGA: the “relative binding free energy” value is -0.23 kcal/mol.
For the sequence ACATGCACGTGGGGGA, the “relative binding free energy” value was -0.08 kcal/mol.
With TGAATCACGTGTGGCT, the “relative binding free energy” value was determined as 0.08 kcal/mol.
Turning to TTTTACACGTGTCGTT, the “relative binding free energy” value was found to be 0.01 kcal/mol.
In the case of GGGTACACGTGTGTCT, the “relative binding free energy” value turned out to be 0.14 kcal/mol.
For TGCTGCACGTGCGTAT, the “relative binding free energy” value was -0.04 kcal/mol.
Consider TGTATCACGTGTAGTG, for which the “relative binding free energy” value stood at 0.11 kcal/mol.
In the case of GGGACCACGTGTGTTG, the “relative binding free energy” value was -0.04 kcal/mol.
With CTATGCACGTGTTGTG the figure was -0.09 kcal/mol; with CGGATCACGTGGTCGT, 0.06 kcal/mol.
Take TGTCGCACGTGTCTTG: the “relative binding free energy” value was -0.11 kcal/mol.
Turning to TTTATCACGTGTTGAT, the “relative binding free energy” value was 0.14 kcal/mol.
As to TTTTGCACGTGACACG, the “relative binding free energy” value came out at 0.13 kcal/mol.
